# Experimental data published in the supplement of paper PMC8728848.
# Some of the results follow.
# B1: StcE (Escherichia coli), O82882.2 (protein)
# chain: ADNNSAIYFNTSQPINDLQGSLAAEVKFAQSQILPAHPKEGDSQPHLTSLRKSLLLVRPVKADDKTPVQVEARDDNNKILGTLTLYPPSSLPDTIYHLDGVPEGGIDFTPHNGTKKIINTVAEVNKLSDASGSSIHSHLTNNALVEIHTANGRWVRDIYLPQGPDLEGKMVRFVSSAGYSSTVFYGDRKVTLSVGNTLLFKYVNGQWFRSGELENNRITYAQHIWSAELPAHWIVPGLNLVIKQGNLSGRLNDIKIGAPGELLLHTIDIGMLTTPRDRFDFAKDKEAHREYFQTIPVSRMIVNNYAPLHLKEVMLPTGELLTDMDPGNGGWHSGTMRQRIGKELVSHGIDNANYGLNSTAGLGENSHPYVVAQLAAHNSRGNYANGIQVHGGSGGGGIVTLDSTLGNEFSHEVGHNYGLGHYVDGFKGSVHRSAENNNSTWGWDGDKKRFIPNFYPSQTNEKSCLNNQCQEPFDGHKFGFDAMAGGSPFSAANRFTMYTPNSSAIIQRFFENKAVFDSRSSTGFSKWNADTQEMEPYEHTIDRAEQITASVNELSESKMAELMAEYAVVKVHMWNGNWTRNIYIPTASADNRGSILTINHEAGYNSYLFINGDEKVVSQGYKKSFVSDGQFWKERDVVDTREARKPEQFGVPVTTLVGYYDPEGTLSSYIYPAMYGAYGFTYSDDSQNLSDNDCQLQVDTKEGQLRFRLANHRANNTVMNKFHINVPTESQPTQATLVCNNKILDTKSLTPAPEGLTYTVNGQALPAKENEGCIVSVNSGKRYCLPVGQRSGYSLPDWIVGQEVYVDSGAKAKVLLSDWDNLSYNRIGEFVGNVNPADMKKVKAWNGQYLDFSKPRSMRVVYK
# Key:
# Assay in all cases: glycan array binding signal (z-score within array); higher = stronger binding
# Conditions in all cases: glycan notation: IUPAC condensed, linker removed
# GalNAc3S(b1-4)GlcNAc = target: GalNAc3S(b1-4)GlcNAc
# Outline: (§1)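 From the Consortium for Functional Glycomics database, 3228 arrays were curated, keeping only those whose protein sequence was available. Binding is given as a within-array Z-score averaged across arrays sharing a protein sequence and across linkers. Negative Z-scores can be read as non-binding.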
# GalNAc3S(b1-4)GlcNAc3S = target: GalNAc3S(b1-4)GlcNAc3S
# Outline: as §1
# GalNAc4S6S(b1-4)GlcNAc = target: GalNAc4S6S(b1-4)GlcNAc
# Outline: as §1
# GalNAc6S(b1-4)GlcNAc = target: GalNAc6S(b1-4)GlcNAc
# Outline: as §1
# Glc(a1-4)Glc = target: Glc(a1-4)Glc
# Outline: as §1
# [1] = target: Glc(a1-4)Glc(a1-4)Glc(a1-4)Glc
# Outline: as §1
# Glc(a1-6)Glc(a1-6)Glc = target: Glc(a1-6)Glc(a1-6)Glc
# Outline: as §1
# [2] = target: Glc(a1-6)Glc(a1-6)Glc(a1-6)Glc
# Outline: as §1
# Glc(b1-4)Glc = target: Glc(b1-4)Glc
# Outline: as §1
# Glc(b1-6)Glc = target: Glc(b1-6)Glc
# Outline: as §1
# GlcA(b1-3)Gal = target: GlcA(b1-3)Gal
# Outline: as §1
# GlcA(b1-3)GlcNAc = target: GlcA(b1-3)GlcNAc
# Outline: as §1
# GlcA(b1-6)Gal = target: GlcA(b1-6)Gal
# Outline: as §1
# [3] = target: GlcNAc(a1-3)Gal(b1-4)GlcNAc
# Outline: as §1
# [4] = target: GlcNAc(a1-4)Gal(b1-3)GlcNAc
# Outline: as §1
# [5] = target: GlcNAc(a1-4)Gal(b1-4)GalNAc
# Outline: as §1
# [6] = target: GlcNAc(a1-4)Gal(b1-4)GlcNAc
# Outline: as §1
# [7] = target: GlcNAc(a1-4)Gal(b1-4)GlcNAc(b1-3)Gal(b1-4)Glc
# Outline: as §1
# [8] = target: GlcNAc(a1-4)Gal(b1-4)GlcNAc(b1-3)Gal(b1-4)GlcNAc
# Outline: as §1
# [9] = target: GlcNAc(a1-4)Gal(b1-4)GlcNAc(b1-3)Gal(b1-4)GlcNAc(b1-3)Gal(b1-4)GlcNAc
# Outline: as §1
# [10] = target: GlcNAc(a1-4)Gal(b1-4)GlcNAc(b1-3)Gal(b1-4)[Fuc(a1-3)]GlcNAc(b1-3)Gal(b1-4)[Fuc(a1-3)]GlcNAc
# Outline: as §1
# [11] = target: GlcNAc(a1-6)Gal(b1-4)GlcNAc
# Outline: as §1
# [12] = target: GlcNAc(b1-2)Gal(b1-3)GalNAc
# Outline: as §1
# [13] = target: GlcNAc(b1-2)Man(a1-3)[GlcNAc(b1-2)Man(a1-6)]Man(b1-4)GlcNAc(b1-4)GlcNAc
# Outline: as §1
# [14] = target: GlcNAc(b1-2)Man(a1-3)[GlcNAc(b1-2)Man(a1-6)]Man(b1-4)GlcNAc(b1-4)[Fuc(a1-6)]GlcNAc
# Outline: as §1
# [15] = target: GlcNAc(b1-2)Man(a1-3)[GlcNAc(b1-4)][GlcNAc(b1-2)Man(a1-6)]Man(b1-4)GlcNAc(b1-4)GlcNAc
# Outline: as §1
# [16] = target: GlcNAc(b1-2)[GlcNAc(b1-4)]Man(a1-3)[GlcNAc(b1-2)Man(a1-6)]Man(b1-4)GlcNAc(b1-4)GlcNAc
# Outline: as §1
# [17] = target: GlcNAc(b1-2)[GlcNAc(b1-4)]Man(a1-3)[GlcNAc(b1-4)][GlcNAc(b1-2)Man(a1-6)]Man(b1-4)GlcNAc(b1-4)GlcNAc
# Outline: as §1
# [18] = target: GlcNAc(b1-2)[GlcNAc(b1-4)]Man(a1-3)[GlcNAc(b1-4)][GlcNAc(b1-2)[GlcNAc(b1-6)]Man(a1-6)]Man(b1-4)GlcNAc(b1-4)GlcNAc
# Outline: as §1
# [19] = target: GlcNAc(b1-2)[GlcNAc(b1-4)]Man(a1-3)[GlcNAc(b1-4)][GlcNAc(b1-2)[GlcNAc(b1-6)]Man(a1-6)]Man(b1-4)GlcNAc(b1-4)[Fuc(a1-6)]GlcNAc
# Outline: as §1
# [20] = target: GlcNAc(b1-2)[GlcNAc(b1-6)]Man(a1-6)[GlcNAc(b1-2)Man(a1-3)]Man(b1-4)GlcNAc(b1-4)GlcNAc
# Outline: as §1
# [21] = target: GlcNAc(b1-2)[GlcNAc(b1-6)]Man(a1-6)[GlcNAc(b1-2)Man(a1-3)]Man(b1-4)GlcNAc(b1-4)[Fuc(a1-6)]GlcNAc
# Outline: as §1
# [22] = target: GlcNAc(b1-2)[GlcNAc(b1-6)]Man(a1-6)[GlcNAc(b1-2)Man(a1-3)][GlcNAc(b1-4)]Man(b1-4)GlcNAc(b1-4)GlcNAc
# Outline: as §1
# GlcNAc(b1-3)Gal = target: GlcNAc(b1-3)Gal
# Outline: as §1
# [23] = target: GlcNAc(b1-3)Gal(b1-3)GalNAc
# Outline: as §1
# GlcNAc(b1-3)Gal(b1-4)Glc = target: GlcNAc(b1-3)Gal(b1-4)Glc
# Outline: as §1
# [24] = target: GlcNAc(b1-3)Gal(b1-4)GlcNAc
# Outline: as §1
# [25] = target: GlcNAc(b1-3)Gal(b1-4)GlcNAc(b1-3)Gal(b1-4)GlcNAc
# Outline: as §1
# GlcNAc(b1-3)GalNAc = target: GlcNAc(b1-3)GalNAc
# Outline: as §1
# GlcNAc(b1-3)Man = target: GlcNAc(b1-3)Man
# Outline: as §1
# [26] = target: GlcNAc(b1-3)[GlcNAc(b1-4)][GlcNAc(b1-6)]GlcNAc
# Outline: as §1
# [27] = target: GlcNAc(b1-3)[GlcNAc(b1-6)]Gal(b1-4)GlcNAc
# Outline: as §1
# [28] = target: GlcNAc(b1-3)[GlcNAc(b1-6)]GalNAc
# Outline: as §1
# [29] = target: GlcNAc(b1-3)[GlcNAc(b1-6)]GlcNAc(b1-4)GlcNAc
# Outline: as §1
# [30] = target: GlcNAc(b1-4)Gal(b1-4)GlcNAc
# Outline: as §1
# GlcNAc(b1-4)GlcNAc = target: GlcNAc(b1-4)GlcNAc
# Outline: as §1
# [31] = target: GlcNAc(b1-4)GlcNAc(b1-4)GlcNAc
# Outline: as §1
# [32] = target: GlcNAc(b1-4)GlcNAc(b1-4)GlcNAc(b1-4)GlcNAc(b1-4)GlcNAc
# Outline: as §1
# [33] = target: GlcNAc(b1-4)GlcNAc(b1-4)GlcNAc(b1-4)GlcNAc(b1-4)GlcNAc(b1-4)GlcNAc
# Outline: as §1
# [34] = target: GlcNAc(b1-4)[GlcNAc(b1-6)]GalNAc
# Outline: as §1
# [35] = target: GlcNAc(b1-6)Gal(b1-4)GlcNAc
# Outline: as §1
# GlcNAc(b1-6)GalNAc = target: GlcNAc(b1-6)GalNAc
# Outline: as §1
# GlcNAc3Prop(b1-4)GlcNAc = target: GlcNAc3Prop(b1-4)GlcNAc
# Outline: as §1
# [36] = target: GlcNAc6S(b1-3)Gal(b1-4)GlcNAc
# Outline: as §1
# Kdn(a2-3)Gal(b1-3)GalNAc = target: Kdn(a2-3)Gal(b1-3)GalNAc
# Outline: as §1
# Kdn(a2-3)Gal(b1-3)GlcNAc = target: Kdn(a2-3)Gal(b1-3)GlcNAc
# Outline: as §1
# Kdn(a2-3)Gal(b1-4)Glc = target: Kdn(a2-3)Gal(b1-4)Glc
# Outline: as §1
# Kdn(a2-3)Gal(b1-4)GlcNAc = target: Kdn(a2-3)Gal(b1-4)GlcNAc
# Outline: as §1
# [37] = target: Kdn(a2-3)Gal(b1-4)[Fuc(a1-3)]GlcNAc
# Outline: as §1
# Kdn(a2-6)Gal(b1-4)GlcNAc = target: Kdn(a2-6)Gal(b1-4)GlcNAc
# Outline: as §1
binder,measurement,setting,value
B1,glycan array binding signal (z-score),GalNAc3S(b1-4)GlcNAc,-0.153
same,glycan array binding signal (z-score),GalNAc3S(b1-4)GlcNAc3S,-0.152
same,glycan array binding signal (z-score),GalNAc4S6S(b1-4)GlcNAc,-0.165
same,glycan array binding signal (z-score),GalNAc6S(b1-4)GlcNAc,-0.148
same,glycan array binding signal (z-score),Glc(a1-4)Glc,-0.3
same,glycan array binding signal (z-score),[1],-0.163
same,glycan array binding signal (z-score),Glc(a1-6)Glc(a1-6)Glc,-0.146
same,glycan array binding signal (z-score),[2],-0.148
same,glycan array binding signal (z-score),Glc(b1-4)Glc,-0.419
same,glycan array binding signal (z-score),Glc(b1-6)Glc,-0.234
same,glycan array binding signal (z-score),GlcA(b1-3)Gal,-0.134
same,glycan array binding signal (z-score),GlcA(b1-3)GlcNAc,-0.083
same,glycan array binding signal (z-score),GlcA(b1-6)Gal,-0.166
same,glycan array binding signal (z-score),[3],-0.161
same,glycan array binding signal (z-score),[4],-0.132
same,glycan array binding signal (z-score),[5],0.257
same,glycan array binding signal (z-score),[6],0.079
same,glycan array binding signal (z-score),[7],-0.11
same,glycan array binding signal (z-score),[8],-0.134
same,glycan array binding signal (z-score),[9],-0.17
same,glycan array binding signal (z-score),[10],3.96
same,glycan array binding signal (z-score),[11],-0.157
same,glycan array binding signal (z-score),[12],0.107
same,glycan array binding signal (z-score),[13],-0.128
same,glycan array binding signal (z-score),[14],-0.14
same,glycan array binding signal (z-score),[15],-0.167
same,glycan array binding signal (z-score),[16],-0.15
same,glycan array binding signal (z-score),[17],-0.154
same,glycan array binding signal (z-score),[18],-0.148
same,glycan array binding signal (z-score),[19],-0.164
same,glycan array binding signal (z-score),[20],-0.167
same,glycan array binding signal (z-score),[21],-0.114
same,glycan array binding signal (z-score),[22],-0.178
same,glycan array binding signal (z-score),GlcNAc(b1-3)Gal,0.13
same,glycan array binding signal (z-score),[23],-0.285
same,glycan array binding signal (z-score),GlcNAc(b1-3)Gal(b1-4)Glc,-0.164
same,glycan array binding signal (z-score),[24],-0.354
same,glycan array binding signal (z-score),[25],-0.12
same,glycan array binding signal (z-score),GlcNAc(b1-3)GalNAc,-0.125
same,glycan array binding signal (z-score),GlcNAc(b1-3)Man,-0.175
same,glycan array binding signal (z-score),[26],-0.174
same,glycan array binding signal (z-score),[27],-0.151
same,glycan array binding signal (z-score),[28],-0.253
same,glycan array binding signal (z-score),[29],-0.323
same,glycan array binding signal (z-score),[30],-0.164
same,glycan array binding signal (z-score),GlcNAc(b1-4)GlcNAc,-0.149
same,glycan array binding signal (z-score),[31],-0.348
same,glycan array binding signal (z-score),[32],-0.15
same,glycan array binding signal (z-score),[33],-0.161
same,glycan array binding signal (z-score),[34],0.189
same,glycan array binding signal (z-score),[35],-0.155
same,glycan array binding signal (z-score),GlcNAc(b1-6)GalNAc,-0.054
same,glycan array binding signal (z-score),GlcNAc3Prop(b1-4)GlcNAc,-0.117
same,glycan array binding signal (z-score),[36],-0.145
same,glycan array binding signal (z-score),Kdn(a2-3)Gal(b1-3)GalNAc,-0.154
same,glycan array binding signal (z-score),Kdn(a2-3)Gal(b1-3)GlcNAc,-0.092
same,glycan array binding signal (z-score),Kdn(a2-3)Gal(b1-4)Glc,-0.177
same,glycan array binding signal (z-score),Kdn(a2-3)Gal(b1-4)GlcNAc,0.177
same,glycan array binding signal (z-score),[37],-0.152
same,glycan array binding signal (z-score),Kdn(a2-6)Gal(b1-4)GlcNAc,-0.17
